Measurements published in paper PMC12820563.
The list shows a part of the results. The list includes weakly bound sequences.

What follows are sequences tested against T1, MBP-FoxP3dN (UniProt Q99JB6) (assay: PD-seq (MBP pull-down with sequencing)). Details: 20 mM Tris-HCl pH 7.5, 100 mM NaCl, 1.5 mM MgCl2, 0.4 uM protein, 0.1 uM dsDNA library, 30 min, room temperature, amylose pull-down; high values mean tight binding; double strand, one strand shown.
T1 sequence: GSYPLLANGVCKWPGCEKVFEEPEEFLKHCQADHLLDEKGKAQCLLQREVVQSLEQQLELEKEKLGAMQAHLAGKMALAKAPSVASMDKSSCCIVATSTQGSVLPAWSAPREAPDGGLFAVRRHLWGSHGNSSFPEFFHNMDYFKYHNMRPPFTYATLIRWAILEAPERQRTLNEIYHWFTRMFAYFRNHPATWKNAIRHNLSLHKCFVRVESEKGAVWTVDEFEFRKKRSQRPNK

Sequence	binding signal (RPM ratio (pull-down/input))
GATGATTGTTCTCCCAGCTGATGAATTTATATCTTCGAGTAAACAAATTTTCCTAATCTTTCTGTTCAAGCGCCATCTAC	1.4
GATGATTGTTCTCCCAGCTGATGAATTTCTCGGATCGAGTAAACAAATTTTCCTAATCTTTCTGTTCAAGCGCCATCTAC	0.173
GATGATTGTTCTCCCAGCTGATGAATTACGTTTGTCGAGTAAACAAATTTTCCTAATCTTTCTGTTCAAGCGCCATCTAC	3.25
GATGATTGTTCTCCCAGCTGATGAATTAACGGCATCGAGTAAACAAATTTTCCTAATCTTTCTGTTCAAGCGCCATCTAC	0.796
GATGATTGTTCTCCCAGCTGATGAATTTCTGGAGTCGAGTAAACAAATTTTCCTAATCTTTCTGTTCAAGCGCCATCTAC	0.197
GATGATTGTTCTCCCAGCTGATGAATTTTCTTGCTCGAGTAAACAAATTTTCCTAATCTTTCTGTTCAAGCGCCATCTAC	0.298
GATGATTGTTCTCCCAGCTGATGAATTAACTGAGTCGAGTAAACAAATTTTCCTAATCTTTCTGTTCAAGCGCCATCTAC	0.225
GATGATTGTTCTCCCAGCTGATGAATTGTGGGATTCGAGTAAACAAATTTTCCTAATCTTTCTGTTCAAGCGCCATCTAC	0.702
GATGATTGTTCTCCCAGCTGATGAATTGCAATGATCGAGTAAACAAATTTTCCTAATCTTTCTGTTCAAGCGCCATCTAC	1.18
GATGATTGTTCTCCCAGCTGATGAATTAAACGGCTCGAGTAAACAAATTTTCCTAATCTTTCTGTTCAAGCGCCATCTAC	0.333
GATGATTGTTCTCCCAGCTGATGAATTTTGACCGTCGAGTAAACAAATTTTCCTAATCTTTCTGTTCAAGCGCCATCTAC	0.489
GATGATTGTTCTCCCAGCTGATGAATTCTCTTCCTCGAGTAAACAAATTTTCCTAATCTTTCTGTTCAAGCGCCATCTAC	0.234
GATGATTGTTCTCCCAGCTGATGAATTGCGTCTATCGAGTAAACAAATTTTCCTAATCTTTCTGTTCAAGCGCCATCTAC	1.52
GATGATTGTTCTCCCAGCTGATGAATTGTCCGACTCGAGTAAACAAATTTTCCTAATCTTTCTGTTCAAGCGCCATCTAC	0.25
GATGATTGTTCTCCCAGCTGATGAATTTAGGACATCGAGTAAACAAATTTTCCTAATCTTTCTGTTCAAGCGCCATCTAC	0.527
GATGATTGTTCTCCCAGCTGATGAATTGGACGCATCGAGTAAACAAATTTTCCTAATCTTTCTGTTCAAGCGCCATCTAC	1.01

Sequence	binding signal (RPM ratio (pull-down/input))
GATGATTGTTCTCCCAGCTGATGAATTTGCAGAATCGAGTAAACAAATTTTCCTAATCTTTCTGTTCAAGCGCCATCTAC	0.301
GATGATTGTTCTCCCAGCTGATGAATTTGCTAATTCGAGTAAACAAATTTTCCTAATCTTTCTGTTCAAGCGCCATCTAC	0.79
GATGATTGTTCTCCCAGCTGATGAATTCGACCTGTCGAGTAAACAAATTTTCCTAATCTTTCTGTTCAAGCGCCATCTAC	0.319
GATGATTGTTCTCCCAGCTGATGAATTCTGTTCGTCGAGTAAACAAATTTTCCTAATCTTTCTGTTCAAGCGCCATCTAC	0.812
GATGATTGTTCTCCCAGCTGATGAATTATGTTATTCGAGTAAACAAATTTTCCTAATCTTTCTGTTCAAGCGCCATCTAC	7.23
GATGATTGTTCTCCCAGCTGATGAATTTCAGGCGTCGAGTAAACAAATTTTCCTAATCTTTCTGTTCAAGCGCCATCTAC	0.461
GATGATTGTTCTCCCAGCTGATGAATTAAGGCCGTCGAGTAAACAAATTTTCCTAATCTTTCTGTTCAAGCGCCATCTAC	0.582
GATGATTGTTCTCCCAGCTGATGAATTAGAGGCATCGAGTAAACAAATTTTCCTAATCTTTCTGTTCAAGCGCCATCTAC	1.28
GATGATTGTTCTCCCAGCTGATGAATTGACTTATTCGAGTAAACAAATTTTCCTAATCTTTCTGTTCAAGCGCCATCTAC	0.621
GATGATTGTTCTCCCAGCTGATGAATTTCGCGCCTCGAGTAAACAAATTTTCCTAATCTTTCTGTTCAAGCGCCATCTAC	1.73
GATGATTGTTCTCCCAGCTGATGAATTTATGGCTTCGAGTAAACAAATTTTCCTAATCTTTCTGTTCAAGCGCCATCTAC	1.11
GATGATTGTTCTCCCAGCTGATGAATTGTGCTTATCGAGTAAACAAATTTTCCTAATCTTTCTGTTCAAGCGCCATCTAC	5.43
GATGATTGTTCTCCCAGCTGATGAATTGCTCGCCTCGAGTAAACAAATTTTCCTAATCTTTCTGTTCAAGCGCCATCTAC	0.728
GATGATTGTTCTCCCAGCTGATGAATTCGACTTGTCGAGTAAACAAATTTTCCTAATCTTTCTGTTCAAGCGCCATCTAC	0.606
GATGATTGTTCTCCCAGCTGATGAATTACGGTGTTCGAGTAAACAAATTTTCCTAATCTTTCTGTTCAAGCGCCATCTAC	0.933
